Key:
Type in all cases: binding
CD163 = CD163 (Homo sapiens, UniProt Q86VB7); test: ELISA antibody reactivity comparison of humanised variants; details: supernatant of transiently transfected CHO-S cells
Experimental: A nunc maxisorp plate was coated with the following (50 μl/well) over night at 4° C.: 4 μg/ml goat anti-human kappa chain antibody (AbD Serotec, Oxford, UK) and ˜4 μg/ml human CD163 (purified as described in 8). Buffer was carbonate buffer, pH 9.0. Each measurement was made in duplicate.
2) The plate was blocked with PBS containing 3% BSA for 1 h.
4) After blocking, the primary antibody was added (100 μl per well).
Undiluted supernatant from transfected cells added to the wells (100 μl/well)
2 fold dilution series were made on all samples and standards. Dilution in PBS containing 1% BSA.
6) Addition of secondary antibody (100 μl/well) • For anti-kappa/anti-gamma ELISA • 100 μl/well of goat anti human IgG gamma chain specific HRP 1:6000 in PBS containing 1% BSA. • For CD163 ELISA • 100 μl/well of goat anti human IgG (H&L) HRP 1:6000 in PBS containing 1% BSA. • For Mac2-158 goat anti-mouse HRP 1:2000 in PBS containing 1% BSA is added to the wells
8) The ELISA was developed by adding 75 μl of TMB substrate to each well. Incubation was performed for 3 min.
10) The plate was read in an ELISA reader at 450 nm.

[1] = biological target: T1, human CD163 LKIHEK containing mutants (VKVQEE-->LKIHEK and double mutant) (Homo sapiens, UniProt Q86VB7, E71K/Q69H/V66L/V68I); test: Western blotting of human CD163 and knock out mutants
T1 construct: a pcDNA5-FRT-humanCD163 plasmid harboring the full length human CD163 cDNA; expressed in transfected cells; host or cells: HEK 293, transient
Description: (§1) For the mutant generation the Site-directed Ligation Independent Mutagenesis (SLIM) method was used (1). Primers are listed in the primer table. The template for the generation of the two first mutants was a pcDNA5-FRT-humanCD163 plasmid harboring the full length human CD163 cDNA. The primers LKI FT, RT, F, and R were used to generate the mutant plasmid pcDNA5-FRT-humanCD163 (VKVQEE-->LKIHEK). The primers R60D FT, RT, F, and R were used to generate the mutant plasmid pcDNA5-FRT-humanCD163 (R60D). Generation of a double mutant was done by performing a SLIM reaction on pcDNA5-FRT-humanCD163 (VKVQEE-->LKIHEK) with the primers R60D FT, RT, F, and R.
(§2) Each cell pellet was added 1 ml lysis buffer (10 mM Tris pH 8, 140 mM NaCl, 15 mM MgSO4, 1% Triton X-100) and incubated for 15 min at 4 °C with rotation. After centrifugation for 30 min at 6000 rpm the supernatants were sterile filtered.
(§3) 90 μl of each of the supernatants were added 30 μl of 4×LDS sample buffer. 3×20 μl samples of each supernatant and 8 μl SeeBlue plus2 prestained marker were loaded on NuPage 4-12% Bis-Tris-Gels (Invitrogen, Taastrup, Denmark) and the SDS-PAGEs were run with MOPS running buffer according to instructions of the manufacturer (200 V constant for 50 min). Blotting to PVDF membranes (Invitrogen, Taastrup, Denmark) was done on an iBLOT device according to instructions of the manufacturer. […]

human CD163 R60D = biological target: T2, human CD163 R60D (Homo sapiens, UniProt Q86VB7, R112D); test: as above
T2 construct: a pcDNA5-FRT-humanCD163 plasmid harboring the full length human CD163 cDNA; expressed in transfected cells; host or cells: HEK 293, transient
Description: as §1, §2, §3

human CD163 wt = biological target: T3, human CD163 wt (Homo sapiens, UniProt Q86VB7); test: as above
T3 construct: a pcDNA5-FRT-humanCD163 plasmid harboring the full length human CD163 cDNA; expressed in transfected cells; host or cells: HEK 293, transient
Experimental: as §2
90 μl of each of the supernatants were added 30 μl of 4×LDS sample buffer. 3×20 μl samples of each supernatant and 8 μl SeeBlue plus2 prestained marker were loaded on NuPage 4-12% Bis-Tris-Gels (Invitrogen, Taastrup, Denmark) and the SDS-PAGEs were run with MOPS running buffer according to instructions of the manufacturer (200 V constant for 50 min). Blotting to PVDF membranes (Invitrogen, Taastrup, Denmark) was done on an iBLOT device according to instructions of the manufacturer. After blotting the membranes were washed briefly in 1×PBS 0.1% Tween and blocked for 30 min in 1×PBS 2% Tween at room temperature with shaking. After blocking the membranes were washed 3×5 min in 1×PBS 0.1% Tween and incubated 1 hour with: (1) 10 ml 1 μg/ml polyclonal rabbit anti-human CD163; (2) 10 ml 1 μg/ml Mac2-158; (3) 10 ml 1:500 KN2/NRY-HRP all diluted in 1×PBS 0.1% Tween. The membranes were washed with 3×5 min 1×PBS 0.1% Tween again and incubated with: (1) 10 ml Goat anti-rabbit-HRP 1:1000 (AbD Serotec, Oxford, UK); or (2) 10 ml Goat anti-mouse-HRP 1:1000 (Dako, Glostrup, Denmark) for 1 hour. […]

T1 sequence (Q86VB7 42-1156 V66L/V68I/Q69H/E71K): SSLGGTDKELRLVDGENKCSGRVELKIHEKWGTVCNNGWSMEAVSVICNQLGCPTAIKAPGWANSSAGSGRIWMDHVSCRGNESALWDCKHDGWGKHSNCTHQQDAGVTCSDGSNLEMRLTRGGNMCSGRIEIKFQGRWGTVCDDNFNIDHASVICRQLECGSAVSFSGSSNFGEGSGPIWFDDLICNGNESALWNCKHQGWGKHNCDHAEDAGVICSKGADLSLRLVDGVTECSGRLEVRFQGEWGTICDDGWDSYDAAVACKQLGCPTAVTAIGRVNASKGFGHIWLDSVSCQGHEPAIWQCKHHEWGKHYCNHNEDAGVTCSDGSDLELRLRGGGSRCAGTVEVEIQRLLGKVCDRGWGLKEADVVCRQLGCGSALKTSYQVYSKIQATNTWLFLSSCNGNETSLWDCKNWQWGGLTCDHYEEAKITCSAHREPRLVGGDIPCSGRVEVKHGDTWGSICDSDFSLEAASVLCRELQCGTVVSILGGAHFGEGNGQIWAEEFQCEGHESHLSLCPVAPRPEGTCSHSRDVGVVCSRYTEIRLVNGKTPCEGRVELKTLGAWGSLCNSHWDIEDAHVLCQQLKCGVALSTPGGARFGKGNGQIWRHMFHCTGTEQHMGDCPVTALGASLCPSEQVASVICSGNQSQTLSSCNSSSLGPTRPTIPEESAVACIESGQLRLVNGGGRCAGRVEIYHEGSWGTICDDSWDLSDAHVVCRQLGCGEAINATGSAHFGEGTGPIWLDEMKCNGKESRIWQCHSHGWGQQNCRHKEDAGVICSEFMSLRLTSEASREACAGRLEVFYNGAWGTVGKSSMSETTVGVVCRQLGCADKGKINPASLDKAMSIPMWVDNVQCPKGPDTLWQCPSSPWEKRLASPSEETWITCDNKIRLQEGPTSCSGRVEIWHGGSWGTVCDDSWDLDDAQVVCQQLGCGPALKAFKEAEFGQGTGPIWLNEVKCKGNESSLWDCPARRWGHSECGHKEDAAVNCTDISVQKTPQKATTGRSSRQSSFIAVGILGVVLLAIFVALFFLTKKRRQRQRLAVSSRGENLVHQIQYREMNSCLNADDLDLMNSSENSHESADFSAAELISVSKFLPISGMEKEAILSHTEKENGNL
T2 sequence (Q86VB7 42-1156 R112D): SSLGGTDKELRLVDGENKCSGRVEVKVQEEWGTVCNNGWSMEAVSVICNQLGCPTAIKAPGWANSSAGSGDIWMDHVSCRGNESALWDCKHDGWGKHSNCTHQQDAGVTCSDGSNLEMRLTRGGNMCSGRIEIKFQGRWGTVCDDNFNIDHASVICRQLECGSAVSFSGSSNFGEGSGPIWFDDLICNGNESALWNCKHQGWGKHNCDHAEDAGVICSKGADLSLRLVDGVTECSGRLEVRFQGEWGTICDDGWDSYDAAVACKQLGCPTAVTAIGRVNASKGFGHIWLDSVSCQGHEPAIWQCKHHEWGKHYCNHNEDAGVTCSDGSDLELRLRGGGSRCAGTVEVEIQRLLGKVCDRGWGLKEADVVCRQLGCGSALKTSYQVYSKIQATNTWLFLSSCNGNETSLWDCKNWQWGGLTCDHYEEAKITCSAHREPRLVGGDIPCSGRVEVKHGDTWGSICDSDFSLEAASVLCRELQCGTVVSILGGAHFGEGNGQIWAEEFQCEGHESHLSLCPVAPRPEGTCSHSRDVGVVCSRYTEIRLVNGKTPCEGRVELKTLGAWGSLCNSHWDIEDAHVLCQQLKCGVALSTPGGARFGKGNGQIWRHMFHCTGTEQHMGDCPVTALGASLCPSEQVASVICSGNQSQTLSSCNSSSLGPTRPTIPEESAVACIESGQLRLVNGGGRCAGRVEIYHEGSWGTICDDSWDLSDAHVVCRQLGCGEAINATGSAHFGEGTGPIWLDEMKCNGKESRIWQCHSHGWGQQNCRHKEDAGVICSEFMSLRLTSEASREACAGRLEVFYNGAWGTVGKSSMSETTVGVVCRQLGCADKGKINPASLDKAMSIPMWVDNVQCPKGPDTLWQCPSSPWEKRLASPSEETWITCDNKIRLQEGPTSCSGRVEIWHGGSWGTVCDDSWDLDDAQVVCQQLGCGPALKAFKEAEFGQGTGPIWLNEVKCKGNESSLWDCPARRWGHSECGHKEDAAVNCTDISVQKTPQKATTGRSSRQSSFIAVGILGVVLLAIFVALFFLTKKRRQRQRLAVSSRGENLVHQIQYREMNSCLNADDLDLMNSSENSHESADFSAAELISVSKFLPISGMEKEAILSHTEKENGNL
T3 sequence (Q86VB7 42-1156): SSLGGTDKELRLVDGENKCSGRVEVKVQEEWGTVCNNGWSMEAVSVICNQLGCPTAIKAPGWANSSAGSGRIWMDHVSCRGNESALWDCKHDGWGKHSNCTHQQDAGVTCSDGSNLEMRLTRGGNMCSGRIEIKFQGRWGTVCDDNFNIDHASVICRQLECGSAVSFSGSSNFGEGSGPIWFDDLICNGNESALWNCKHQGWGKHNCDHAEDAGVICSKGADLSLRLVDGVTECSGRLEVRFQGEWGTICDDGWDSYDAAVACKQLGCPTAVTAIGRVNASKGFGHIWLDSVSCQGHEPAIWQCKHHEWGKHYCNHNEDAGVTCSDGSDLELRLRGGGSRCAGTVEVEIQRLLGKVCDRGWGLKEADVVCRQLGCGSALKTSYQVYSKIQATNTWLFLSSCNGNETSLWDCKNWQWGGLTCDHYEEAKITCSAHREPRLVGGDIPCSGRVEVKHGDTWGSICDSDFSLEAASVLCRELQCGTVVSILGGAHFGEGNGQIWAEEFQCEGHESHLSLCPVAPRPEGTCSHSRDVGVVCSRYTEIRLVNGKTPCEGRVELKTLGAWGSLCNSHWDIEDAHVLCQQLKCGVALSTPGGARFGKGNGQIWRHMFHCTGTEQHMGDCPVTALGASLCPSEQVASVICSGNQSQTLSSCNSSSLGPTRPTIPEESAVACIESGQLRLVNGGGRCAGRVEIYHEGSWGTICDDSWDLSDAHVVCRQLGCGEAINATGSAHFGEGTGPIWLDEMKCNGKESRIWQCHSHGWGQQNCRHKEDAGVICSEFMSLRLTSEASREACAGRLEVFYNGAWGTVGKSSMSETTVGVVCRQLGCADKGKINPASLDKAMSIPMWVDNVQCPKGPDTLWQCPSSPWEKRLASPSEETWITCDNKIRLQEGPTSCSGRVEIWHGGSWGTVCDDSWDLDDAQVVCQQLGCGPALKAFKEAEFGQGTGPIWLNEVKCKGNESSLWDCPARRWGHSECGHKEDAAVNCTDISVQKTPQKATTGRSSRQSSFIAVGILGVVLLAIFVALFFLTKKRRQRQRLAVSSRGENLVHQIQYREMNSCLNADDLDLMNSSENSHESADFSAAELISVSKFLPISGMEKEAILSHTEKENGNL

Molecule	reactivity towards CD163 in ELISA (CD163)	binding in western blot [1]	binding in western blot (human CD163 R60D)	binding in western blot (human CD163 wt)
KN1IN5: humanised heavy chain variant (additional S56I, Y58N) paired with light chain NRY (antibody) heavy: QVQLQESGPGLVKPSETLNLTCTVSGYSITSDYAWNWIRQFPGNKLEWMGYITYSGITNYNPSLKSRVTISVDTSKNQFSLKLSSVTAADTATYYCVSGTYYFDYWGQGTTLTVSSASTKGPSVFPLAPCSRSTSESTAALGCLVKDYFPEPVTVSWNSGALTSGVHTFPAVLQSSGLYSLSSVVTVPSSSLGTKTYTCNVDHKPSNTKVDKRV[left out - human IgG4 Fc] light: DIVMTQSPSSLSASVGDRVTITCRASQSVSSDVAWFQQKPGKSPKPLIYYASNRYSGVPSRFSGSGSGTDFTLTISSLQAEDFAVYFCGQDYTSPRTFGGGTKLEIKRTVAAPSVFIFPPSDEQLKSGTASVVCLLNNFYPREAKVQWKVDNALQSGNSQESVTEQDSKDSTYSLSSTLTLSKADYEKHKVYACEVTHQGLSSPVTKSFNRGEC	comparable reactivity	–	–	–
DQ2: humanised heavy chain variant Q1D paired with light chain NRY (antibody) heavy: DVQLQESGPGLVKPSETLNLTCTVSGYSITSDYAWNWIRQFPGNKLEWMGYITYSGITNYNPSLKSRVTISVDTSKNQFSLKLSSVTAADTATYYCVSGTYYFDYWGQGTTLTVSSASTKGPSVFPLAPCSRSTSESTAALGCLVKDYFPEPVTVSWNSGALTSGVHTFPAVLQSSGLYSLSSVVTVPSSSLGTKTYTCNVDHKPSNTKVDKRV[left out - human IgG4 Fc] light: DIVMTQSPSSLSASVGDRVTITCRASQSVSSDVAWFQQKPGKSPKPLIYYASNRYSGVPSRFSGSGSGTDFTLTISSLQAEDFAVYFCGQDYTSPRTFGGGTKLEIKRTVAAPSVFIFPPSDEQLKSGTASVVCLLNNFYPREAKVQWKVDNALQSGNSQESVTEQDSKDSTYSLSSTLTLSKADYEKHKVYACEVTHQGLSSPVTKSFNRGEC	comparable reactivity	–	–	–
KN2/NRY-HRP: KN2/NRY conjugated to HRP by periodate oxidation (conjugate) heavy: QVQLQESGPGLVKPSETLSLTCTVSGYSITSDYAWNWIRQFPGNKLEWMGYITYSGSTYYNPSLKSRVTISVDTSKNQFSLKLSSVTAADTATYYCVSGTYYFDYWGQGTTLTVSSASTKGPSVFPLAPCSRSTSESTAALGCLVKDYFPEPVTVSWNSGALTSGVHTFPAVLQSSGLYSLSSVVTVPSSSLGTKTYTCNVDHKPSNTKVDKRV[left out - human IgG4 Fc] light: DIVMTQSPSSLSASVGDRVTITCRASQSVSSDVAWFQQKPGKSPKPLIYYASNRYSGVPSRFSGSGSGTDFTLTISSLQAEDFAVYFCGQDYTSPRTFGGGTKLEIKRTVAAPSVFIFPPSDEQLKSGTASVVCLLNNFYPREAKVQWKVDNALQSGNSQESVTEQDSKDSTYSLSSTLTLSKADYEKHKVYACEVTHQGLSSPVTKSFNRGEC	–	showed only binding to the human CD163 wt	not be detected	binding
VR1: humanised heavy chain variant (V71R intended, turned out V71E) paired with light chain NRY (antibody) heavy: QVQLQESGPGLVKPSETLNLTCTVSGYSITSDYAWNWIRQFPGNKLEWMGYITYSGITNYNPSLKSRVTISEDTSKNQFSLKLSSVTAADTATYYCVSGTYYFDYWGQGTTLTVSSASTKGPSVFPLAPCSRSTSESTAALGCLVKDYFPEPVTVSWNSGALTSGVHTFPAVLQSSGLYSLSSVVTVPSSSLGTKTYTCNVDHKPSNTKVDKRV[left out - human IgG4 Fc] light: DIVMTQSPSSLSASVGDRVTITCRASQSVSSDVAWFQQKPGKSPKPLIYYASNRYSGVPSRFSGSGSGTDFTLTISSLQAEDFAVYFCGQDYTSPRTFGGGTKLEIKRTVAAPSVFIFPPSDEQLKSGTASVVCLLNNFYPREAKVQWKVDNALQSGNSQESVTEQDSKDSTYSLSSTLTLSKADYEKHKVYACEVTHQGLSSPVTKSFNRGEC	comparable reactivity	–	–	–

Reference: patent US20170119790A1, “Agents, Uses and Methods” (CYTOGUIDE A/S, priority 2009, published 2017)
